The campaign covered roughly 44,000 compounds. About 340 (0.77%) were called active. Another 5% or so got no clear call; they are omitted. The call rests on the fitted dose curve; in most records, active means well fitted inhibition curve with a large enough effect; inconclusive means small, poorly fitted or top-dose-only effect; inactive means flat fitted curve, though single readings scatter. The list shows a part of the results.
assay: Acumen qHTS Assay for Inhibitors of the mTORC1 Signaling Pathway in MEF (Tsc2-/-, p53-/-) Cells: Sytravon; conditions: phospho-rpS6 immunofluorescence/PI, 24 h; series mostly up to 38.3 µM; activity change, negative = inhibition: at the top concentration;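 further: plate controls were DMSO for no effect and rapamycin for full effect; nearly all actives have a fitted effect of over 50% in size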
Method in brief: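 Immunofluorescence of rpS6 phosphorylation in Tsc2-/-, p53-/- MEFs after 24 h compound exposure, normalized to propidium iodide signal. Activity is expressed as % positive cells, thresholded with 7.5 nM rapamycin.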

Structure (SMILES)	activity change, negative = inhibition
COc1ccccc1NC(=O)CC(C)n1nc(C)cc1C (configuration not stated)	inactive: 1.04%
COc1ccc(OC)c(CCNC(=O)CCCn2c(=O)c3cccn3c3ccc(F)cc32)c1	inactive: -25.1%
COc1ccccc1Nc1ncc2c(n1)CCN(Cc1ccc(C)s1)C2	inactive: 0%
Cc1cc(F)ccc1NC(=O)CCS(=O)(=O)c1cc2c(cc1C)NC(=O)CO2	inactive: 2.84%
COc1ccc(-n2nc3c(N4CCC(C(=O)NCc5ccccc5C)CC4)nnc(C)c3c2C)cc1	inactive: -2.49%
CCOC(=O)N1CCC(NC(=O)c2c(C)nn(-c3cccc(C)c3)c2-n2cccc2)CC1	inactive: -5.39%
CCOC(=O)c1ccc(NC(=O)CSc2nc3c(c(=O)[nH]2)CN(Cc2ccccc2)CC3)cc1	inactive: 0.0661%
Cc1ccc2c(=O)c(C(=O)c3cccc(Cl)c3)cn(CC(=O)NC3CCCCC3)c2n1	inactive: 4.57%
CC(C)(C)C(=O)NCCc1nc2ccccc2n1CCCCOc1ccccc1	inactive: -10.4%
Cc1ccc(N(CC(=O)N2CCN(c3ccc(F)cc3)CC2)S(=O)(=O)c2c(C)noc2C)cc1	inactive: -2.76%
Cc1ccc(CSc2cn(CC(=O)N3CCCCCC3)c3ccccc23)cc1	inactive: -18.7%
COc1cccc(CNC(=O)Cn2ncc3c(=O)oc4ccccc4c32)c1	inactive: -8.23%
O=S(=O)(NCc1ccc(F)cc1)c1ccc(N2CCCCS2(=O)=O)cc1	inactive: -29.7%
CCOc1ccccc1CNCCCSc1nnnn1C	inactive: 0.65%
CCCN(Cc1cc2cccc(C)c2[nH]c1=O)C(=O)c1cccc(Cl)c1	inactive: 3.5%
Cc1ccc(Cl)cc1NC(=O)Cn1c(=O)cc(C)c2c(C)nn(C)c21	inactive: -17.4%
Cc1ccc(CNC(=O)CCNS(=O)(=O)c2ccc3c(c2)oc(=O)n3C)cc1	inactive: 2.26%
Cc1cc(C)c(S(=O)(=O)Nc2ccc3oc(C)c(C(=O)OC(C)C)c3c2)cc1C	inactive: 3.56%
O=C(COc1ccc(Br)cc1Br)Nc1ccc(S(=O)(=O)Nc2ncccn2)cc1	inactive: 0.573%
COc1cccc(C2CC(=O)Nc3c2c(=O)n(C)c2nc4ccccc4n32)c1OC (configuration not stated)	inactive: 6.79%
O=C(CCn1c(=O)c2sccc2n(Cc2ccc(F)cc2)c1=O)NCc1ccc2c(c1)OCO2	inactive: -23.9%

Structure (SMILES)	activity change, negative = inhibition
Cc1ccc(-n2nc3cc(C)c(NC(=O)c4ccc(-c5ccccc5)o4)cc3n2)cc1	inactive: 3%
Cc1ccc(NC(=O)CC2Oc3ccc(C)cc3NC2=O)c(C)c1 (configuration not stated)	inactive: -6.38%
COc1cccc(Nc2nnc(-c3cc4ccc(O)cc4oc3=O)s2)c1	inactive: -5.73%
CCOc1ccc(NC(=O)Cn2c(=O)n(CCc3ccccc3)c(=O)c3c4c(sc32)CCCC4)cc1	inactive: 3.62%
CC(=O)c1ccc(NC(=O)Cn2nc(C(F)(F)F)c3c2CCC3)cc1	inactive: -2.18%
Cc1ccc(CSc2c(C)cnc3c2c(=O)n(C)c(=O)n3C)cc1	inactive: -1.59%
CCOC(=O)C1=C(CN2CCN(c3ccc(Cl)cc3)CC2)NC(=O)NC1c1ccc(OC)cc1 (configuration not stated)	inactive: -0.977%
O=C(Cn1ncc2c3ccccc3n(Cc3ccccc3)c2c1=O)NCc1cccs1	inactive: -1.41%
Cc1ccc(Cl)cc1N1CCN(C(=O)Cn2cnc3onc(-c4ccc(F)cc4)c3c2=O)CC1	inactive: 3.15%
CCc1nc2ccc(C(=O)N3CCN(c4ccccc4F)CC3)cc2nc1CC	inactive: 2.35%
COc1cccc2sc(NC(=O)c3ccc4c(c3)OCCO4)nc12	inactive: 10%
CCCCNC(=O)CCC1N=C2c3ccccc3N=C(SCC(=O)NCCc3ccc(OC)c(OC)c3)N2C1=O (configuration not stated)	inactive: 2.52%
CCN(CC)CCNC(=O)CCn1c(=O)c2cccn2c2cccnc21	inactive: 4.53%
Cc1ccc2nc(-c3ccc(NC(=O)Cc4ccccc4)cc3)sc2c1	inactive: 7.67%
O=C(CSc1nc2ccsc2c(=O)n1Cc1ccc(F)cc1)NCc1ccc(Cl)cc1	inactive: -1.27%
COc1ccc(OC)c(-c2cc(C(=O)Nc3ccc(C)c(C)c3)no2)c1	inactive: -24.6%
CN1c2ccc(Cl)cc2-c2nc(SCC(=O)NCc3ccc(F)cc3)ncc2S1(=O)=O	inactive: 3.34%
O=C1CCCc2cc(S(=O)(=O)NCC3CCC(C(=O)Nc4ccc(Cl)cc4)CC3)ccc2N1 (configuration not stated)	inactive: -19.2%
CC1=C(C(=O)Nc2ccc(C)cc2C)C(c2ccccc2)n2nc(SCC(=O)c3ccc(C)cc3)nc2N1 (configuration not stated)	inactive: -3.43%
CCc1ccccc1NC(=O)CCNS(=O)(=O)c1ccc2c(c1)CCCC(=O)N2	inactive: -2.52%
COc1ccc(NC(=O)Cn2c(=O)oc3ccccc32)cc1	inactive: -0.0579%

Structure (SMILES)	activity change, negative = inhibition
O=C(NCC(c1ccc2c(c1)OCO2)N1CCOCC1)c1ccccc1 (configuration not stated)	inactive: -1.67%
Cc1c(O)nc(SCC(=O)Nc2ccc(Cl)cc2Cl)n(-c2ccc(F)cc2)c1=O	inactive: -9.51%
CCN1CCN(c2ncc3c(n2)CCN(Cc2cc(Br)cs2)C3)CC1	inactive: 0%
CCC(C)NC(=O)c1cc2cc(S(=O)(=O)N3CCCCC3)ccc2n1C (configuration not stated)	inactive: 0.452%
CCC(C)c1ccc(OCC(=O)Nc2cccc3ccc(C)nc23)cc1 (configuration not stated)	inactive: 1.47%
Cc1nn(C)c2c1c(C(F)(F)F)cc(=O)n2CC(=O)NCc1ccc(OC(C)C)cc1	inactive: 0.788%
COc1cc(Cn2c(=O)oc3ccc(C)cc32)ccc1OCCC(C)C	inactive: -3.45%
CC(C)(C)c1ccc(S(=O)(=O)N2CCC(Oc3ccc(-n4cnnn4)cc3)CC2)cc1	inactive: 3.94%
Cc1cn(C)c(CC(=O)NCc2cccc(Cl)c2)c1C(=O)O	inactive: -0.576%
CC(C)(C)c1ccc(CSC2=Nc3ccccc3C3=NC(CC(=O)NCc4cccs4)C(=O)N23)cc1 (configuration not stated)	inactive: -1.5%
Cc1ccc(CNS(=O)(=O)c2ccc(N3CCCCS3(=O)=O)cc2)cc1	inactive: 19.6%
O=C(CNC(=O)c1ccc(Cl)cc1)OCc1cc(=O)n2nc(C3CC3)sc2n1	inactive: 0.352%
COC(=O)COc1ccc(C2C(C(=O)OC)=C(C)NC3=C2C(=O)c2ccccc23)cc1OC (configuration not stated)	inactive: -18.1%
COc1ccc(Nc2oc(-c3ccc(COc4cccc(C)c4)o3)nc2C#N)cc1	inactive: -9.89%
COC(=O)c1cc(NC(=O)CCc2c(C)nc3c(c(C)nn3C(C)(C)C)c2C)cc(C(=O)OC)c1	inactive: 1.77%
COc1ccc(CCNC(=O)Cc2c(C)c3cc4c(C(C)(C)C)coc4c(C)c3oc2=O)cc1OC	inactive: -3.89%
Cc1cc(C)c2c(c1)NC(=O)C2(O)c1c[nH]c2ccccc12 (configuration not stated)	inactive: -1.4%
Cc1ccc2c(c1)cc1c(=O)n(Cc3cccc(Cl)c3)nc(C)n12	inactive: 1.88%
Cc1nc(N2CCOCC2)c2c(C(=O)N3CCN(c4ccccc4F)CC3)c(C)oc2n1	inactive: -8.95%
Cc1ccc(C(=O)N(Cc2ccco2)Cc2sccc2C)cc1	inactive: -18.5%

Reference: PubChem BioAssay AID493208 (National Center for Advancing Translational Sciences (NCATS), 2011)
